Holding throughout (test): co-IP; transfected HEK293T cells; lysis buffer 25 mM Tris-HCl pH 7.4, 150 mM NaCl, 1 mM EDTA, 1% NP40, 5% glycerol; anti-Flag, anti-Myc or anti-HA beads overnight at 4 °C; Western blot
Test [1] concerns the target T1, Flag-tagged BSRF1 (Epstein-Barr virus (human herpesvirus 4 strain M81)) (UniProt P0CK49).
T1 sequence: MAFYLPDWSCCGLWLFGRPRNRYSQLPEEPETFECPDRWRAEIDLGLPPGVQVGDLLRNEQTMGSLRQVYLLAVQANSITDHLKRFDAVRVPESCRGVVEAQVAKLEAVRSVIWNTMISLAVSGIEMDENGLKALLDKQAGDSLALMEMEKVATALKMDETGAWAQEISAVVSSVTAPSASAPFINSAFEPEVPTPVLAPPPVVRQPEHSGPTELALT

The target of test [2] is T2, Flag-tagged BSRF1_(20-218) (Epstein-Barr virus (human herpesvirus 4 strain M81)) (UniProt P0CK49).
T2 sequence: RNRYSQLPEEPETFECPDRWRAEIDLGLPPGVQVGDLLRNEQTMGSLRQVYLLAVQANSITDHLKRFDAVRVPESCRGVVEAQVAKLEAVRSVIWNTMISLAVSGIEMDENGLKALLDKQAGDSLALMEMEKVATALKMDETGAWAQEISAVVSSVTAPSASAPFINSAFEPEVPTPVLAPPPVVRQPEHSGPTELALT

The target in the next test is T3, GM130 (GOLGA2) (UniProt Q08379).
T3 sequence: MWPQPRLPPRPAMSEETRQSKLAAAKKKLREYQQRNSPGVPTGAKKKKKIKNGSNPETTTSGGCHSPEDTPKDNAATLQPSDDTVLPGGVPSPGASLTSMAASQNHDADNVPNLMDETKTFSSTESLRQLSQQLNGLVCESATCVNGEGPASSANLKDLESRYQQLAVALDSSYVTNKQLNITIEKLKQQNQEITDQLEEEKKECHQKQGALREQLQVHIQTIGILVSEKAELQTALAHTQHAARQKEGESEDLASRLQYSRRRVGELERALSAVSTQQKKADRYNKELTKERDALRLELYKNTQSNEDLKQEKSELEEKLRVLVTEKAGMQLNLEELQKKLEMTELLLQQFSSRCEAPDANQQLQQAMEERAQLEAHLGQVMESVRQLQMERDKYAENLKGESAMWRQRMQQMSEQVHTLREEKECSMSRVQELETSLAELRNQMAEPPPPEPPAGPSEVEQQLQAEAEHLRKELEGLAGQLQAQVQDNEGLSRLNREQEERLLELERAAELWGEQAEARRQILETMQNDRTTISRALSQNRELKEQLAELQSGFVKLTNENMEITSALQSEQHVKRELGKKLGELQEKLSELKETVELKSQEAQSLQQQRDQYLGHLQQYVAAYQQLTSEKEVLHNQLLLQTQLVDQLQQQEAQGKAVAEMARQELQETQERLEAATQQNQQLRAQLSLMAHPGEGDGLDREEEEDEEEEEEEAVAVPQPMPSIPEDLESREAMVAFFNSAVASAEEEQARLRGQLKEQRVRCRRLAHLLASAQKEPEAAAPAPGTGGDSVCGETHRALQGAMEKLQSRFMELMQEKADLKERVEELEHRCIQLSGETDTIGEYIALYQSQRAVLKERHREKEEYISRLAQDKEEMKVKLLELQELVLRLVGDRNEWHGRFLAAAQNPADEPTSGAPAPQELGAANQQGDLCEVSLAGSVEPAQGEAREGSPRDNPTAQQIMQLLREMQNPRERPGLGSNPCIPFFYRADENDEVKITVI

The target in a further test is T4, GOLGA5 (UniProt Q8TBA6).
T4 sequence: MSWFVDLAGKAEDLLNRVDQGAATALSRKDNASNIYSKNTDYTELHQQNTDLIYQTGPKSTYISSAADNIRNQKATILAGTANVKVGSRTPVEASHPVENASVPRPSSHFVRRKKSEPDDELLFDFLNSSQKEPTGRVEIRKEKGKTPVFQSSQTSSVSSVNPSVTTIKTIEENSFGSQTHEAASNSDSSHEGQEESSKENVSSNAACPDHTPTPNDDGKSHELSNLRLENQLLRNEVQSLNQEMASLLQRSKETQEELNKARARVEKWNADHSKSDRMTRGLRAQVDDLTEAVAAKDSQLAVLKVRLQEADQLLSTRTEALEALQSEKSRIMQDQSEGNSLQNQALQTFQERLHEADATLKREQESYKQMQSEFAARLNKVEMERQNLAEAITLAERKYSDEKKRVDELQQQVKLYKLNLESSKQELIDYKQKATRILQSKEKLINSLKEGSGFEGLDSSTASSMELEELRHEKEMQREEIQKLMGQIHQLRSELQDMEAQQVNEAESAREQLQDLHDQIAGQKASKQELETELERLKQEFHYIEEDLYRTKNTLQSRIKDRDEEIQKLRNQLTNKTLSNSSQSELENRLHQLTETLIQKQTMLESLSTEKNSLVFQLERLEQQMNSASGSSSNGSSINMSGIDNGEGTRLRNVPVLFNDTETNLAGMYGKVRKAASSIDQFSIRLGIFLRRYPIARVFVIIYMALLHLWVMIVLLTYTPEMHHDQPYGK

The target of a further test is T5, GOLGA1 (UniProt Q92805).
T5 sequence: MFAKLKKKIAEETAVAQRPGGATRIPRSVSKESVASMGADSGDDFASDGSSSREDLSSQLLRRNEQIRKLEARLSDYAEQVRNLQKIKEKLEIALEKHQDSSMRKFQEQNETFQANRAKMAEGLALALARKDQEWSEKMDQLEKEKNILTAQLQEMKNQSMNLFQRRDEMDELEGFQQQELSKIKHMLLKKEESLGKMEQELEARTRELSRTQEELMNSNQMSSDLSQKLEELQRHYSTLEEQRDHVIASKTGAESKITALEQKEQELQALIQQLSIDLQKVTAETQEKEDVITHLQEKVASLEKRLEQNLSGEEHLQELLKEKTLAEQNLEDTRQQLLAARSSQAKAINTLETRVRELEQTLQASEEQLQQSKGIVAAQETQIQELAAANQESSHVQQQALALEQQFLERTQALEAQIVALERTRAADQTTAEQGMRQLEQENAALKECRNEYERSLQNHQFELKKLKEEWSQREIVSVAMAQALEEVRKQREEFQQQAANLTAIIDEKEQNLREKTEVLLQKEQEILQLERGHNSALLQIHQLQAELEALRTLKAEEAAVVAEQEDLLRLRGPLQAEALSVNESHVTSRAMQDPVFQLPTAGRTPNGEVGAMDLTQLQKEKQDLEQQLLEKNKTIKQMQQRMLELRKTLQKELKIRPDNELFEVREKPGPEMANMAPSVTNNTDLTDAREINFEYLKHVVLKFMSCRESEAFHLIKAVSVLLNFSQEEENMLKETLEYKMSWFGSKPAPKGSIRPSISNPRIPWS

The target of test [3] is HA-tagged EBV glycoprotein gB (Epstein-Barr virus) (UniProt P03188).

Results are given in words; binding and its absence hold for the method and conditions named. Binding seen in cells or lysates may run through a third protein. Some entries that bind do so weakly or less than the wild type. Where a sequence is shown, tags or fusion partners need not be part of it.

“Myc-tagged EBV glycoprotein gB (from UniProt P03188 22-857)”: the binding result in test [1] is “binds”; in test [2], “no binding”.

B1: Flag-tagged BSRF1 (protein, UniProt P0CK49 1-218)
chain: MAFYLPDWSCCGLWLFGRPRNRYSQLPEEPETFECPDRWRAEIDLGLPPGVQVGDLLRNEQTMGSLRQVYLLAVQANSITDHLKRFDAVRVPESCRGVVEAQVAKLEAVRSVIWNTMISLAVSGIEMDENGLKALLDKQAGDSLALMEMEKVATALKMDETGAWAQEISAVVSSVTAPSASAPFINSAFEPEVPTPVLAPPPVVRQPEHSGPTELALT
Turning to B1, the binding entry is given as “no binding” in the test with GM130 (GOLGA2), “binds” in the test with GOLGA5, “no binding” with GOLGA1 and “binds” in test [3].

For the origin of these results see article PMC7588443 (Nature Communications, 2020).
